# Assay results taken from PubChem BioAssay AID588855 (National Center for Advancing Translational Sciences (NCATS), 2011).
# In all, about 410,000 compounds went through this assay and about 5,000 (1.2%) were called active. Inconclusive results, whose numbers are uncertain, are shown with a selection of clear calls. The call rests on the fitted dose curve; in most records, active means well fitted inhibition curve with a large enough effect; inconclusive means small, poorly fitted or top-dose-only effect; inactive means no such curve, though single readings can be large or run the other way. Where the call is inconclusive, the potency comes from a doubtful curve fit.
# Assay: qHTS for Inhibitors of TGF-b; further: nearly all actives have a fitted effect of over 65% in size
# Conditions: HepG2 CAGA-GFP TGF-b/SMAD3 reporter, GFP fluorescence, 18 h, TGF-beta stimulated, 500 pg/mL final; series mostly up to 46.1 µM
# Outline: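 Using HEPG2 CAGA-GFP reporter cells at 1000 cells/well, we pinned test compounds, stimulated with recombinant TGF-beta (500 pg/mL final) and measured total well GFP after 18 h.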
# Potency means the concentration at half of the fitted maximal effect; tags describe the fitted curve by direction and shape.
row,Compound,Potency
1,CN(C)c1cc(Cl)c2nonc2c1N,"inconclusive: 11.2 µM [inhibitor, single point]"
2,Cc1nc2ccccc2n1C(=O)c1ccccc1[N+](=O)[O-],"inconclusive: 25.1 µM [inhibitor, single point]"
3,COc1cccc(C(=O)Nc2ccc(NC(=O)C3CC=CCC3C(=O)O)cc2)c1 (configuration not stated),"inconclusive: 1.12 µM [inhibitor, partial curve, poor fit]"
4,CCCCNC(=O)O[C@@H]1C[C@H]2CCCC(=O)N3CC[C@@H](C1)[C@@H]23,"inconclusive: 5.62 µM [inhibitor, single point]"
5,CCOC(=O)/C=C1\SCC(=O)N1CC(=O)NC(C)c1ccccc1 (configuration not stated),inactive
6,Cn1c(=O)[nH]c(=O)c2c1nc(N1CCCCCC1)n2CCCSc1nc2ccccc2o1,"inconclusive: 6.31 µM [inhibitor, single point]"
7,O=C(/C=C/c1ccccc1[N+](=O)[O-])N1CCN(c2ccc(F)cc2)CC1,inactive
8,COc1ccc(C(=O)Nc2ccc(C3=NNC(=O)CC3C)cc2NC(=O)c2ccc(OC)cc2)cc1 (configuration not stated),inactive
9,Cc1ccc(-n2nc3c(=O)n(CC(=O)NCCc4ccco4)nc(C)c3c2C)cc1,active: 22.4 µM
10,O=C(COc1ccccc1Cl)Nc1ccc(CN2CCOCC2)cc1,inactive
11,O=c1cc(CN2CCN(c3cccc(Cl)c3)CC2)c2cc3c(cc2o1)CCCC3,"inconclusive: 35.5 µM [inhibitor, single point]"
12,Cn1c(=O)c2c(-c3ccc(OC(F)F)cc3)cc(-c3ccccc3)nc2n(C)c1=O,inactive
13,COc1ccc(N2CCN(C(=O)c3ccc(Nc4nc5ccccc5n5nnnc45)cc3)CC2)cc1,inactive
14,Cc1cc(C)cc(NC(=O)CN2CCc3cc4c(cc3C2C)OCCCO4)c1 (configuration not stated),"inconclusive: 35.5 µM [inhibitor, single point]"
15,Cc1cc(Cl)c2oc(C(=O)N3CCN(c4ccncc4)CC3)c(C)c2c1,"inconclusive: 35.5 µM [inhibitor, single point]"
16,COc1ccc(C(CC(=O)N2CCCC(C)C2)c2c(OC)cc(OC)c3c(-c4ccccc4)cc(=O)oc23)cc1 (configuration not stated),"inconclusive: 35.5 µM [inhibitor, partial curve, poor fit]"
17,C=CCN(CC=C)C(=O)C1CCN(S(=O)(=O)c2ccc(N3CCCC3=O)cc2)CC1,inactive
18,Clc1ccc(-c2nnc(Sc3nc4ccccc4o3)c3ccccc23)cc1,"inconclusive: 10 µM [inhibitor, partial curve, poor fit]"
19,O=C(CCS(=O)(=O)c1nc(-c2ccc3c(c2)OCO3)cc(C(F)(F)F)n1)Nc1ccc(F)c(Cl)c1,active: 20 µM
20,CCOc1ccc(N2CC(C(=O)NCCc3ccc(S(N)(=O)=O)cc3)CC2=O)cc1 (configuration not stated),inactive
21,Cc1cccc(C)c1N(CC(O)Cn1c2ccccc2c2ccccc21)S(C)(=O)=O (configuration not stated),active: 10 µM
22,CCN1CCN(C(=O)CN(c2cc(OC)ccc2OC)S(C)(=O)=O)CC1,inactive
23,C=C1CCN([C@@H](Cc2ccccc2)C(=O)Nc2ccc(OC)cc2)S(=O)(=O)c2ccccc21,inactive

row,Compound,Potency
1,CCc1nn(CC(=O)NCCN2CCN(C)CC2)c(=O)c2cc3occc3n12,"inconclusive: 3.16 µM [inhibitor, single point]"
2,CCOc1ccc(-c2cc(CCCC(=O)NCCc3ccc(OC)c(OC)c3)no2)cc1,"inconclusive: 20 µM [inhibitor, single point]"
3,Oc1cccc(Nc2cc(-c3ccccc3)ncn2)c1,"inconclusive: 11.2 µM [inhibitor, partial curve, poor fit]"
4,Cc1ccsc1/C=N/n1c(-c2cc(-c3ccccc3)n[nH]2)n[nH]c1=S,"inconclusive: 15.8 µM [inhibitor, single point]"
5,COc1cc(/C=N/NC(=O)c2ccc(C)nc2)cc([N+](=O)[O-])c1O,inactive
6,N#Cc1ccc(NC(=O)c2ccc3c(c2)nnn3C2CCCC2)cc1,"inconclusive: 0.112 µM [inhibitor, full curve, poor fit]"
7,COc1cccc(NC(=S)/C(=C(\[O-])c2ccc(C)c([N+](=O)[O-])c2)[n+]2ccccc2)c1,inactive
8,O=C1[C@H](Cc2ccccc2)NC/C=C\C[C@@H](c2ccco2)N1Cc1ccccc1,"inconclusive: 35.5 µM [inhibitor, single point]"
9,COc1cccc(NC(=O)Cn2c(=O)n(CCCCC(=O)NCc3ccc4c(c3)OCO4)c(=O)c3ccccc32)c1,inactive
10,Fc1ccccc1-c1csc(=Nc2cccnc2)n1CCCn1ccnc1,"inconclusive: 10 µM [inhibitor, partial curve, poor fit]"
11,COC(=O)[C@@]1(Cc2ccc(OC)cc2)[C@H]2c3cc(C(=O)N4CCCC4)n(CCSCCO)c3C[C@H]2CN1C(=O)c1ccccc1,inactive
12,CCOC(=O)c1c(C)c(C)n(Cc2ccc(OC)c(OC)c2)c1C,"inconclusive: 35.5 µM [inhibitor, single point]"
13,CCOC(=O)C(=O)Nc1ccc(Oc2ccccc2)cc1,"inconclusive: 22.4 µM [inhibitor, single point]"
14,Cc1ccc(S(=O)(=O)n2ccc3c(OCCOCCSCC(NC(=O)OC(C)(C)C)C(=O)O)cccc32)cc1 (configuration not stated),"inconclusive: 35.5 µM [inhibitor, single point]"
15,CC(C)c1ccc(NC(=O)c2cnn3c(C(F)F)cc(-c4ccccc4)nc23)cc1,inactive
16,N#Cc1ccc(/C=C\c2nccc3c2[nH]c2ccccc23)cc1,"inconclusive: 10 µM [inhibitor, partial curve]"
17,N#CCCN(C(=O)CSc1ccc2c(c1)OCCO2)c1ccccc1,"inconclusive: 35.5 µM [inhibitor, single point]"
18,COC(=O)Cn1ccc2cc(S(=O)(=O)N3CCCCC3)ccc21,"inconclusive: 35.5 µM [inhibitor, single point]"
19,Cc1ccccc1NC(=O)c1ccc(F)c(S(=O)(=O)N2CCc3ccccc3C2)c1,inactive
20,Cc1ccc(C(C)C)c(OCCCn2c(=O)oc3ccc(C)cc32)c1,"inconclusive: 7.94 µM [inhibitor, partial curve]"
21,CN(Cc1c(F)cccc1Cl)C(=O)C1=CC=CN2CCS(=O)(=O)N=C12,inactive
22,Cc1sc(NC(=O)c2sc3nc4c(C)cccc4cc3c2N)c(C#N)c1C,inactive
23,CC[C@H](C)/C=C/C1=CC2=C(Cl)C(=O)[C@@]3(C)OC(=O)C(C(=O)[C@H](C)[C@@H](C)O)=C3C2=CO1,"inconclusive: 11.2 µM [inhibitor, partial curve, poor fit]"

row,Compound,Potency
1,CCSC1=C(C#N)C(c2ccc(OC)c(OC)c2)CC(=O)N1 (configuration not stated),"inconclusive: 0.562 µM [inhibitor, full curve, poor fit]"
2,COc1ccc(-n2ncc(C(=O)NCCCN3CCCCC3)c2C2CCN(C(=O)OC(C)(C)C)CC2)cc1,inactive
3,CCOCCCNC(=O)Cn1cc2c(n1)-c1c(oc(C(=O)N3CCCC3)c1C)CC2,"inconclusive: 8.91 µM [inhibitor, partial curve]"
4,Cc1cccc(OCCOCCn2c(-c3ccc(Cl)cc3)nc3ccccc3c2=O)c1C,inactive
5,Clc1ccc2nc(CN3CCCCCC3)cn2c1,inactive
6,CC1(C)CC(=O)C2=C(C1)c1c(ccc3ccccc13)NC2c1cc([N+](=O)[O-])cc([N+](=O)[O-])c1O (configuration not stated),"inconclusive: 25.1 µM [inhibitor, single point]"
7,Cc1cccc(NC(=O)c2oc3ccc(S(=O)(=O)N(C)C4CCCCC4)cc3c2C)c1C,inactive
8,CCOC(=O)c1c(NC(=O)c2nn(C)cc2[N+](=O)[O-])sc(C)c1C,inactive
9,Cc1ccc(NC(=O)Cn2c(=O)cnc3ccccc32)cc1S(=O)(=O)N1CCCCC1,"inconclusive: 17.8 µM [inhibitor, single point]"
10,CCCCN(Cc1ccco1)C(=O)c1cc2c(s1)-c1c(C)cccc1OC2,"inconclusive: 28.2 µM [inhibitor, single point]"
11,CCc1ccc(S(=O)(=O)N2CCN(c3ccc(Cl)c(Cl)c3)CC2)cc1,inactive
12,Cc1ccccc1Cn1c(=O)n(CCC(=O)NCc2ccc3c(c2)OCO3)c(=O)c2ccccc21,inactive
13,CCc1ccccc1NC(=O)Cn1nnc(C(=O)Nc2ccc(OC)c(OC)c2)c1N,inactive
14,CN(C(=O)CN1CCN(c2ccccc2F)CC1)C1CCCc2ccccc21 (configuration not stated),"inconclusive: 25.1 µM [inhibitor, single point]"
15,NS(=O)(=O)c1ccc(CCNc2nc3c(-c4cccc(F)c4)nnn3c3ccccc23)cc1,"inconclusive: 3.98 µM [inhibitor, single point]"
16,Cc1ccc(N2CC(C(=O)NCc3nnnn3-c3ccc(C)c(C)c3)CC2=O)cc1C (configuration not stated),"inconclusive: 0.199 µM [inhibitor, full curve, poor fit]"
17,O=C(NNC(=O)c1csc(N2CCOCC2)n1)c1cccnc1,"inconclusive: 3.55 µM [inhibitor, single point]"
18,CC(C)c1ccc2oc(-c3cc(NC(=O)c4cccnc4)ccc3Cl)nc2c1,"inconclusive: 31.6 µM [inhibitor, single point]"
19,Cc1ccc(NC(=O)COC(=O)Cc2ccsc2)cc1S(=O)(=O)N1CCOCC1,"inconclusive: 0.708 µM [inhibitor, full curve]"
20,COc1cc(OC)cc(-c2c(-c3cccs3)c3cc(-c4cnc(N)nc4)ccc3n2C)c1,"inconclusive: 35.5 µM [inhibitor, single point]"
21,CCOC(=O)c1ccc(NC(=O)c2nc[nH]c2C(=O)N[C@H](C)c2ccccc2)cc1,"inconclusive: 22.4 µM [inhibitor, single point]"
